Our source for the relative growth values is the supplement of paper PMC9446081.

About 220 (0.56%) of roughly 39,000 compounds showed activity. The list shows a part of the results.
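Also: static incubation at 37 °C against the wild-type strain, values averaged over two biological replicates.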

This assay relates to Escherichia coli K-12 BW25113. In words: relative growth (OD600 normalised to plate interquartile mean) (fraction); higher = less growth inhibition, active = 0.2 or less. The settings on record: 50 µM; LB; incubation time: overnight (16-24 h).
Consider `CN(C)C(=O)C[C@@H]1CC[C@@H]2[C@H](COc3ccc(NS(=O)(=O)c4cccc(F)c4)cc3C(=O)N2C)O1`, for which the relative growth is inactive: 0.993. In the case of `COc1ccc(S(=O)(=O)Nc2ccc3c(c2)C(=O)N([C@@H](C)CO)C[C@H](C)[C@@H](CN(C)Cc2ccncc2)O3)cc1` it was inactive: 0.992; in that of `CCCCN1CNC(=S)NC1`, inactive: 1.04. As for `C[C@@H]1CN([C@@H](C)CO)C(=O)c2cc(NS(=O)(=O)c3cn(C)cn3)ccc2O[C@@H]1CN(C)CC1CC1`, the relative growth is inactive: 0.97.

For the compound `C[C@@H]1CCCCO[C@@H](CN(C)C(=O)Nc2ccc3c(c2)OCO3)[C@H](C)CN([C@@H](C)CO)C(=O)c2cc(NC(=O)Nc3ccc(F)cc3)ccc2O1`, the relative growth was inactive: 1.02.

`C[C@@H]1CN([C@H](C)CO)C(=O)Cc2cc(NC(=O)C3CCCCC3)ccc2O[C@@H]1CN(C)Cc1ccc(C(F)(F)F)cc1`: the relative growth is inactive: 1.02. As to `COc1ccc(NC(=O)Nc2ccc3c(c2)CC(=O)N([C@@H](C)CO)C[C@@H](C)[C@H](CN(C)C(=O)Nc2cccc4ccccc24)O3)cc1`, the relative growth is inactive: 0.977. On to `C[C@H]1CN([C@@H](C)CO)C(=O)Cc2cc(NC(=O)Cn3cnnn3)ccc2O[C@@H]1CN(C)Cc1ccncc1`, for which the relative growth is inactive: 0.99. Under `Cc1nc(=O)c2c([nH]1)CCSC2` stands inactive: 0.963; under `C[C@H](CO)N1C[C@H](C)[C@H](CN(C)Cc2ccc(C(=O)Nc3ccccc3N)cc2)Oc2ccc(NC(=O)CCC(F)(F)F)cc2C1=O`, inactive: 0.998; under `CC(C)CNC(=O)[C@@]1(c2ccc([N+](=O)[O-])cc2)CC(=O)N(CC23CC4CC(CC(C4)C2)C3)[C@@H]1c1ccc(CO)cc1`, inactive: 1.02. Consider `O=C(NCc1nc2ccccc2[nH]1)C1=C[C@H](c2csc3ccccc23)C[C@H](OCc2ccc(CO)cc2)O1`, for which the relative growth was inactive: 0.993.

On to `CC(C)NC(=O)Nc1ccc2c(c1)C(=O)N([C@@H](C)CO)C[C@H](C)[C@H](CN(C)Cc1ccc(C(F)(F)F)cc1)OCCCC[C@H](C)O2`, for which the relative growth was inactive: 1.01. For the compound `CCCCN1C[C@H](O)[C@@H](O)[C@H](O)[C@H]1CO`, the relative growth is inactive: 1.02. In the case of `N[C@@H](C(=O)O)c1ccc(C(=O)O)c(C(=O)O)c1` it was inactive: 1.02; in that of `CO[C@@H]1CN(C)C(=O)c2cc(NS(C)(=O)=O)ccc2OC[C@H](C)N(S(C)(=O)=O)C[C@H]1C`, inactive: 0.993. Turning to `N=C(N)NC(=O)c1nc(Cl)c(N)nc1N`, the relative growth is inactive: 0.988. In the case of `Cn1ccc2ccc(CN)cc21` it was inactive: 0.985; in that of `C[C@H](CO)N1C[C@H](C)[C@H](CN(C)Cc2ccc3c(c2)OCO3)OCCCC[C@H](C)Oc2ccc(NC(=O)Cc3ccccc3)cc2C1=O`, inactive: 1.01; in that of `CNC[C@@H]1Oc2c(NS(=O)(=O)c3cn(C)cn3)cccc2C(=O)N([C@@H](C)CO)C[C@H]1C`, inactive: 0.999. For the compound `C[C@H](CO)N1C[C@H](C)[C@H](CN(C)C(=O)Nc2ccccc2)OCCCC[C@H](C)Oc2ccc(NS(=O)(=O)c3ccc(Cl)cc3)cc2C1=O`, the relative growth is inactive: 0.987. In the case of `COc1ccc(S(=O)(=O)Nc2ccc3c(c2)C(=O)N([C@H](C)CO)C[C@H](C)[C@@H](CN(C)C(=O)Nc2c(C)noc2C)OCCCC[C@@H](C)O3)cc1` it was inactive: 0.992.

For the compound `C[C@@H]1CN([C@H](C)CO)C(=O)Cc2cc(N(C)C)ccc2O[C@@H]1CN(C)S(=O)(=O)c1cn(C)cn1`, the relative growth was inactive: 0.989. Under `COc1ccc(S(=O)(=O)N(C)C[C@H]2Oc3cc(C#CC4CC4)ccc3S(=O)(=O)N([C@H](C)CO)C[C@@H]2C)cc1` stands inactive: 1.04; under `C[C@H](CO)N1C[C@H](C)[C@@H](CN(C)Cc2ccc(C(=O)O)cc2)OCCCC[C@H](C)Oc2ccc(NS(=O)(=O)c3cccs3)cc2C1=O`, inactive: 1.01; under `C[C@H]1CN([C@@H](C)CO)C(=O)Cc2cc(NC(=O)Nc3ccc(C(F)(F)F)cc3)ccc2O[C@@H]1CN(C)Cc1ccccc1`, inactive: 0.99. As to `C[C@@H]1CN([C@@H](C)CO)C(=O)Cc2cc(NC(=O)CCN3CCOCC3)ccc2O[C@H]1CN(C)C(=O)Nc1ccc2c(c1)OCO2`, the relative growth was inactive: 1.03. In the case of `COCCOC(=O)C1=C(C)NC(C)=C(C(=O)OCC=Cc2ccccc2)C1c1cccc([N+](=O)[O-])c1` (stereo unspecified), the relative growth is inactive: 1.01. In the case of `c1ccc(Nc2nc(-c3ccccc3)nc3ccccc23)cc1`, the relative growth is inactive: 0.926.

`O=C(CS)NCCCCCCNC(=O)[C@@H]1C[C@@H]2C(=O)N3CCC[C@H]3C(=O)N2[C@@H]1c1cccc(OCCO)c1`: the relative growth was inactive: 1.01. In the case of `C[C@@H]1CN([C@H](C)CO)C(=O)c2cc(NC(=O)Nc3cccc4ccccc34)ccc2O[C@@H](C)CCCCO[C@@H]1CN(C)S(=O)(=O)c1cn(C)cn1` it was inactive: 1.03; in that of `Nc1ccccc1CO`, inactive: 1.01; in that of `Cc1nn(C)c(C)c1CN`, inactive: 1. Regarding `C/C=C/c1ccc([C@H]2[C@@H](CO)N(S(=O)(=O)CC)C23CN(C(=O)CN(C)C)C3)cc1`, the relative growth is inactive: 1.

`O=C(C[C@H]1CC[C@@H](NC(=O)CN2CCOCC2)[C@@H](CO)O1)NCc1cccc(F)c1`: the relative growth was inactive: 1. In the case of `Cc1noc(C)c1NC(=O)N(C)C[C@H]1Oc2c(NC(=O)C3CCOCC3)cccc2C(=O)N([C@H](C)CO)C[C@H]1C` it was inactive: 0.996. Consider `C[C@H]1CN([C@@H](C)CO)C(=O)c2cc(NC(=O)Cc3ccccc3)ccc2O[C@H]1CN(C)C(=O)Nc1cccc2ccccc12`, for which the relative growth is inactive: 1.02. In the case of `Cc1noc(C)c1S(=O)(=O)Nc1ccc2c(c1)C(=O)N([C@H](C)CO)C[C@H](C)[C@@H](CN(C)S(=O)(=O)c1ccccc1)O2` it was inactive: 0.968; in that of `C[C@@H]1CN([C@H](C)CO)C(=O)c2cc(NS(=O)(=O)c3ccc(F)cc3)ccc2O[C@@H](C)CCCCO[C@@H]1CN(C)C(=O)c1ccccc1`, inactive: 1; in that of `Cc1nnnn1CC(=O)Nc1ccc(F)cc1`, inactive: 0.999. Under `COc1ccc(C#Cc2ccc([C@@H]3[C@@H](CO)N4CCCCN(S(=O)(=O)c5cn(C)cn5)C[C@@H]34)cc2)cc1` stands inactive: 1.01. As to `C[C@@H]1CN([C@@H](C)CO)S(=O)(=O)c2ccc(/C=C/c3ccccc3)cc2O[C@@H]1CN(C)C(=O)Nc1cc(F)ccc1F`, the relative growth is inactive: 1.02. Under `Nc1nnc2n1CCS2` stands inactive: 0.986; under `COc1ccc(S(=O)(=O)N(C)C[C@H]2Oc3ccc(NC(=O)c4ccncc4)cc3C(=O)N([C@H](C)CO)C[C@@H]2C)cc1`, inactive: 0.966. Under `C[C@@H]1CN([C@H](C)CO)C(=O)Cc2cc(NC(=O)CCC(F)(F)F)ccc2O[C@@H]1CN(C)S(C)(=O)=O` stands inactive: 0.979; under `C[C@H]1CN([C@@H](C)CO)C(=O)c2ccccc2-c2ccccc2CO[C@H]1CN(C)C(=O)Nc1cccc(Cl)c1Cl`, inactive: 0.998; under `CO[C@H]1CN(C)C(=O)c2cc(NC(=O)Nc3cccc(Cl)c3)ccc2OC[C@H](C)N(C(=O)Nc2c(C)noc2C)C[C@@H]1C`, inactive: 0.967. Under `CO[C@H](CN(C)C(=O)c1ccc2c(c1)OCO2)[C@@H](C)CN([C@H](C)CO)S(=O)(=O)c1ccc(C)cc1` stands inactive: 0.979; under `N[C@@H](CC(=O)O)C(=O)O`, inactive: 1.02; under `C[C@@H]1CN([C@@H](C)CO)C(=O)c2cccc(NS(=O)(=O)c3cn(C)cn3)c2O[C@@H]1CN(C)CC1CCCCC1`, inactive: 1.02. Regarding `C[C@@H]1CCCCO[C@@H](CN(C)C(=O)Nc2ccc(C(F)(F)F)cc2)[C@H](C)CN([C@@H](C)CO)C(=O)c2cc(NS(=O)(=O)c3cn(C)cn3)ccc2O1`, the relative growth was inactive: 0.821. In the case of `C[C@@H]1CN([C@@H](C)CO)C(=O)c2cc(NS(=O)(=O)c3cn(C)cn3)ccc2O[C@@H](C)CCCCO[C@@H]1CN(C)S(=O)(=O)c1ccc(F)cc1` it was inactive: 0.996; in that of `C[C@@H]1CN([C@H](C)CO)S(=O)(=O)c2ccc(Br)cc2O[C@H]1CN(C)S(=O)(=O)c1ccc(F)cc1`, inactive: 1.03.

Consider `O=c1[nH]cc(S(=O)(=O)N2CCN(c3ccccc3F)CC2)c(=O)[nH]1`, for which the relative growth was inactive: 0.972. As to `CN1CCN(C(=O)C[C@@H]2CC[C@@H]3[C@H](COC[C@@H](O)CN3C(=O)C3CCOCC3)O2)CC1`, the relative growth is inactive: 1.01. For the compound `CO[C@@H]1CN(C)C(=O)c2cc(NC(=O)NC(C)C)ccc2OC[C@@H](C)N(Cc2ccc(-c3ccccn3)cc2)C[C@@H]1C`, the relative growth is inactive: 1.01.

Regarding `NCC1CCSCC1`, the relative growth was inactive: 0.988. In the case of `C[C@H](O)C#Cc1ccc2c(c1)O[C@@H](CN(C)C(=O)Nc1ccccc1)[C@H](C)CN([C@H](C)CO)S2(=O)=O` it was inactive: 1.02. On to `C[C@@H]1CN([C@H](C)CO)C(=O)c2cc(NC(=O)CCC(F)(F)F)ccc2O[C@@H]1CN(C)Cc1ccc(-c2ccccc2)cc1`, for which the relative growth was inactive: 0.877. For `COc1ccccc1S(=O)(=O)N(C)C[C@@H]1OCc2cnnn2CCCC(=O)N([C@H](C)CO)C[C@H]1C`, the relative growth was inactive: 0.971. In the case of `NS(=O)(=O)c1ccc(Cl)cc1[N+](=O)[O-]` it was inactive: 0.88; in that of `CSCC[C@@H](N)C(=O)O`, inactive: 1.02; in that of `Cc1ncc([N+](=O)[O-])n1C`, inactive: 1.09. In the case of `C[C@@H]1CN([C@@H](C)CO)C(=O)c2cc(NC(=O)Nc3ccc4c(c3)OCO4)ccc2O[C@H]1CN(C)Cc1ccc(C(F)(F)F)cc1`, the relative growth is inactive: 0.99. Take `Nc1ncccc1-c1nc2ccc(-c3ccccc3)nc2n1-c1ccc(C2(N)CCC2)cc1`: the relative growth was inactive: 0.97. Under `C[C@@H]1CCCCO[C@H](CN(C)C(=O)Nc2cccc3ccccc23)[C@H](C)CN([C@H](C)CO)C(=O)c2cc(NC(=O)Cc3ccccc3)ccc2O1` stands inactive: 1.01.
